Test results: PubChem BioAssay AID2676 (National Center for Advancing Translational Sciences (NCATS), 2010)
Screen size: about 370,000 compounds; about 1,100 (0.3%) were called active. Inconclusive means that the source gave no clear call. Such entries were picked first, then a sample of the others. The call rests on the fitted dose curve; in most records, active means well fitted activation curve with a large enough effect; inconclusive means small, poorly fitted or top-dose-only effect; inactive means flat fitted curve, though single readings scatter. A potency beside an inconclusive call is a rough fit, not a confirmed value.

Molecular target: Relaxin receptor 1 (Homo sapiens) (UniProt Q9HBX9)
Assay: qHTS Assay for Agonists of the Relaxin Receptor RXFP1; further: nearly all actives have a fitted effect of over 60% in size
Conditions: HEK293T-RXFP1 cAMP TR-FRET, 30 min; series mostly up to 57.5 µM
Outline: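 HEK293T cells stably expressing RXFP1 were pretreated with the PDE4 inhibitor Ro 20174, exposed to compounds for 30 min at 37C, lysed, and cAMP was read by TR-FRET. Data normalized to buffer (basal) and 29 nM porcine relaxin (100%).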
Potency means the concentration at half of the fitted maximal effect; tags describe the fitted curve by direction and shape.

UniProt Q9HBX9, sequence (Q9HBX9 whole entry, looked up): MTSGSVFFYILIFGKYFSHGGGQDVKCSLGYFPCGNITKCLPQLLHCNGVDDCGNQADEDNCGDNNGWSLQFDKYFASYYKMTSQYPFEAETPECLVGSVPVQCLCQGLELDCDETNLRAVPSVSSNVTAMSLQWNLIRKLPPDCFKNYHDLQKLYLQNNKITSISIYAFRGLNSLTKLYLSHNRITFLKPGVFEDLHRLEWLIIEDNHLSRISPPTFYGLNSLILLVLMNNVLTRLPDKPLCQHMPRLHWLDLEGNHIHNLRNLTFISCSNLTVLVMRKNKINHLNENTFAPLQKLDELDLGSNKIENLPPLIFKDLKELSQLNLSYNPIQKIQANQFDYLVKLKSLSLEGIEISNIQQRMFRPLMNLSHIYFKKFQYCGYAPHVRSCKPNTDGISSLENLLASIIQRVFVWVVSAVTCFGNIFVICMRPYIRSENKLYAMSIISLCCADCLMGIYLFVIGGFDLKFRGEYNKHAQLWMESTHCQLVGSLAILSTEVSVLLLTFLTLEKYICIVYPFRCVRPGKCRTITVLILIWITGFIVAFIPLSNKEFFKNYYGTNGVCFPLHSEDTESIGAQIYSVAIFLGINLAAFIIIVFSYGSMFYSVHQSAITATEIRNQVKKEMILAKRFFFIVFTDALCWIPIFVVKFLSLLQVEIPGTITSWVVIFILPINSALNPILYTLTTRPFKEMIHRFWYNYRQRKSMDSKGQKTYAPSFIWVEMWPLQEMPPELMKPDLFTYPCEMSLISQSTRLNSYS

SMILES | Potency
O=C(Nc1nc2ccsc2c(=O)s1)c1ccc(Cl)cc1 | active: 12.6 µM
Cc1ccc(-c2nnc(NC(=O)c3c(F)cccc3Cl)s2)cc1 | inconclusive: 39.8 µM [activator, single point]
COc1ccc(NC(=O)Cn2c(=O)c3ccccc3n3nncc23)c(OC)c1 | inconclusive: 28.2 µM [activator, partial curve]
Cc1ccc(CNC(=O)C(C)n2nc(C)c3sc4ccccc4c3c2=O)cc1 (stereo not drawn) | active: 31.6 µM
COc1ccc(C(=O)Nc2nnc(Cc3ccc(OC)c(OC)c3)s2)cc1 | inconclusive: 39.8 µM [activator, single point]
COc1ccccc1NC(=O)COC(=O)c1ccccc1SCC(=O)N1CCCC1 | inconclusive: 35.5 µM [activator, single point]
COc1cccc(-c2ccc(-c3noc(-c4ccccc4Br)n3)c(OC)n2)c1 | inconclusive: 35.5 µM [activator, single point]
COC(=O)c1cc(NS(=O)(=O)c2ccc3c(c2)c(=O)n(C)c(=O)n3C)cc(C(=O)OC)c1 | inconclusive: 25.1 µM [activator, partial curve]
CCOC(=O)c1ccccc1NC(=O)c1ccccc1NS(C)(=O)=O | inactive
N#C/C(=C\c1c(N2CCCCCC2)nc2ccccn2c1=O)C(N)=O | inconclusive: 20 µM [activator, partial curve]
CN(Cc1ccccc1)c1nc(N)c([N+](=O)[O-])c(NCc2ccccc2)n1 | inactive
CCc1ccc(CNC(=O)CCCn2nc(C)n3ccnc3c2=O)cc1 | inconclusive: 22.4 µM [activator, partial curve]
CC1CC(C)CN(CCCNC(=O)Cn2cccc2C(=O)c2ccccc2)C1 (stereo not drawn) | inactive
CCn1c(CSc2nc3ccccc3s2)nnc1SCC(=O)NCC(=O)OC | inactive
COC(=O)c1c(-c2ccco2)csc1NC(=O)C1CC=CCC1C(=O)O (stereo not drawn) | inactive
COc1ccccc1N1CCN(/N=C/C(Cl)=C/c2ccccc2)CC1 | inactive
CCOc1cc2[nH]c(=S)n(Cc3ccc(C(=O)NCCOC)cc3)c(=O)c2cc1OCC | inconclusive: 39.8 µM [activator, single point]
CS(=O)(=O)c1ccc(-c2cn3cc(C(=O)O)ccc3n2)cc1 | inconclusive: 15.8 µM [activator, partial curve]
CCN1CCN(C(=O)CCc2nnc3ccc(N4CCN(c5cccc(OC)c5)CC4)nn23)CC1 | inconclusive: 25.1 µM [activator, partial curve]
N#C/C(=C\c1ccc(-c2cccc(Cl)c2)o1)C(=O)Nc1cccc(C(F)(F)F)c1 | inactive
O=C1NCCN1c1ncc([N+](=O)[O-])s1 | inactive
CCN(CC)S(=O)(=O)c1ccc2c(c1)nc(SCn1nnc3ccccc3c1=O)n2CC | inactive

SMILES | Potency
CCCCNC(=O)CSc1nc2ccc(N3CCOCC3)cc2c(=O)n1Cc1ccc(OC)cc1 | inconclusive: 35.5 µM [activator, single point]
COc1ccc(Nc2ncnc3ccc(C)cc23)cc1 | inactive
Cc1nc2c(c(C)nn2C(C)(C)C)c(C)c1CCC(=O)Nc1ccc(F)cc1 | inconclusive: 31.6 µM [activator, single point]
O=C(Nc1ccc(S(=O)(=O)Nc2nccs2)cc1)c1nn(-c2ccccc2)ccc1=O | inconclusive: 17.8 µM [activator, partial curve]
COCCCNC(=O)c1ccc(Cn2c(=O)c3cccn3c3cccnc32)cc1 | inconclusive: 39.8 µM [activator, single point]
CC1CCN(C(=O)CSc2nc3ccccc3nc2Cc2ccccc2)CC1 | inconclusive: 31.6 µM [activator, single point]
O=C(NN=C1CCCC1)c1n[nH]c2c1CCC2 | inconclusive: 0.1 µM [activator, full curve]
CC(=O)C1=C(O)C(=O)N(c2ccc(Br)cc2)C1c1ccc(Br)cc1 (stereo not drawn) | inconclusive: 28.2 µM [activator, partial curve]
CC1(C)Cc2nc3sc4c(=O)n(CC(=O)NCc5ccccc5)cnc4c3cc2CO1 | inconclusive: 39.8 µM [activator, single point]
CCOc1ccc(C(C(=O)NCC2CCCO2)N(C(=O)c2snc(C(N)=O)c2N)c2ccccc2F)cc1 (stereo not drawn) | inconclusive: 31.6 µM [activator, single point]
CCNC(=O)c1c(NC(=O)c2nc(S(=O)(=O)CC)ncc2Cl)sc2c1CCCC2 | inconclusive: 17.8 µM [activator, partial curve]
CCOC(=O)c1c(C)c(-c2ccccc2)n(CC(=O)NCCc2cccc(C)c2)c1C | inconclusive: 31.6 µM [activator, single point]
CCc1cc(=O)[nH]c(SCc2nc(-c3ccccc3)no2)n1 | inactive
O=S(=O)(NCc1ccc2c(c1)OCO2)c1cccc(F)c1 | inactive
CS(=O)(=O)Nc1ccccc1C(=O)OCc1cc(=O)n2nc(C3CCCCC3)sc2n1 | inconclusive: 39.8 µM [activator, single point]
COCCCN1C(=O)C(=O)/C(=C(/O)c2ccc(OCC(C)C)cc2C)C1c1cccnc1 (stereo not drawn) | inconclusive: 20 µM [activator, partial curve]
Cc1cn(C(=O)CN2C(=O)c3ccccc3C2=O)c(C)n1 | inconclusive: 39.8 µM [activator, single point]
COc1ccccc1Nc1nc2c(S(=O)(=O)c3ccc(C(C)C)cc3)nnn2c2ccsc12 | inconclusive: 6.31 µM [activator, single point]
CCN(CC)CCCNc1oc(/C=C/c2ccccc2)nc1C#N | inconclusive: 39.8 µM [activator, single point]
COc1cccc2cc(C(=O)C3=C(O)C(=O)N(CCN4CCOCC4)C3c3ccc(C(C)(C)C)cc3)oc12 (stereo not drawn) | inconclusive: 15.8 µM [activator, partial curve]
CCN1CCN(C(=O)c2cc3c(=O)n4ccccc4nc3s2)CC1 | inconclusive: 22.4 µM [activator, partial curve]
